# Measured values published in paper PMC7819943, “Rice protein-binding microarrays: a tool to detect cis-acting elements near promoter regions in rice”.
# This is one part of the list.
# Target: T1, OsWOX13 (Oryza sativa, UniProt Q5QMM3 1-267)
# T1 sequence: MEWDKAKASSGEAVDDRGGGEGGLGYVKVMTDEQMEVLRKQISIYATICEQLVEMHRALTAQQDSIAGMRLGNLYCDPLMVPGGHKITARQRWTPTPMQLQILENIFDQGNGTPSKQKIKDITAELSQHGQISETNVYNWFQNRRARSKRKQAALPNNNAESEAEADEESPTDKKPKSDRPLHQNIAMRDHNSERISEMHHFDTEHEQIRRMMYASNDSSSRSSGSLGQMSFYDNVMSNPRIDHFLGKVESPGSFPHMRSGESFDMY
# Test: protein-binding microarray (RPBM); PBS, 2% BSA, 51.3 ng/ul salmon testes DNA, 50 uM zinc acetate, 200 nM TF, 25 C, 1 h; high values mean tight binding
# Settings: protein: recombinant; tags: N-terminal polyhistidine and DsRed monomer fusion (pET32a); label: CyDye5-dUTP incorporated in the synthesized complementary strand; 3' TTTTT single-stranded linker to array surface; dsDNA, one strand shown
# Method in brief: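 Binding signal is defined as the fluorescence intensity of each feature in arbitrary units, read on an Axon 4000B scanner. Transcription factors with N-terminal polyhistidine and DsRed fusions came from E. coli BL21-CodonPlus and were purified on Ni–NTA. They were incubated at 200 nM for 1 h at 25 °C on a custom Agilent array that had been made double-stranded with Cy5-dUTP, with 50 µM zinc acetate present, and the array was washed.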
row,Sequence,binding signal
1,CGTGTATGACTGACAATTAGCATCCGATCGGGACCGTCCACGGAGTCACCTAGTGCAG,29500 fluorescence intensity (a.u.)
2,TTTGTTGTTAATTTGTCTCTAATTTTCTAGAAATGTAATTCGGAGTCACCTAGTGCAG,18000 fluorescence intensity (a.u.)
3,TCTCCTGTTTATTTTCTATGCTTTCCCCTATATATACTTGCGGAGTCACCTAGTGCAG,3480 fluorescence intensity (a.u.)
4,CCCGTCAATCCAGCCATGACAACCTGATCCGTCCACGGTGCGGAGTCACCTAGTGCAG,5330 fluorescence intensity (a.u.)
5,TCTCCAATCATATTACTTGCATGCATCGAGGTGATATAACCGGAGTCACCTAGTGCAG,8130 fluorescence intensity (a.u.)
6,TTGATTTGATGAAAGAATATCATATGGATATATTTAAGGACGGAGTCACCTAGTGCAG,29700 fluorescence intensity (a.u.)
7,TCCAAAATTCCATTAAATCAGGTGAATGACTAAAGTGTAACGGAGTCACCTAGTGCAG,4340 fluorescence intensity (a.u.)
8,CTTGTATGACAAAGATTGATTGCAGCTGACCTGGAATTGGCGGAGTCACCTAGTGCAG,43500 fluorescence intensity (a.u.)
9,ATCATCTAATGATTTGGCTTGTCACTTACATTTACAGGTGCGGAGTCACCTAGTGCAG,6680 fluorescence intensity (a.u.)
10,AATAATTGAATATATTTTCATAATAAATTTGTCTTGGGTTCGGAGTCACCTAGTGCAG,44400 fluorescence intensity (a.u.)
11,ATACAATATAATTGTAATTATATTGTAACTTTTATGCAACCGGAGTCACCTAGTGCAG,18300 fluorescence intensity (a.u.)
12,ATAAATTTGTACCCTCCAGCTCACACTCAATGTCACCTGGCGGAGTCACCTAGTGCAG,13000 fluorescence intensity (a.u.)
13,GTCATTTTCCATCACATCAACCTGTCATACACACACAACTCGGAGTCACCTAGTGCAG,4730 fluorescence intensity (a.u.)
14,AGTCTATCGTTGGTGGGTGATTGGGAGAGAAACAGTGCGTCGGAGTCACCTAGTGCAG,16300 fluorescence intensity (a.u.)
15,TGTGACAGGGTGTAAAATTTTGCCAGAGGGATCTAAATATCGGAGTCACCTAGTGCAG,4220 fluorescence intensity (a.u.)
16,CTTACTGCAAATTACATGTCAGTCCATCTTAGGCTGTGTTCGGAGTCACCTAGTGCAG,8610 fluorescence intensity (a.u.)
17,TTGATGATGTGAAGTTTATGAAAACTGTGTCTAGTGTCATCGGAGTCACCTAGTGCAG,5070 fluorescence intensity (a.u.)
18,CACTAGTAATTACTATTATAGAGCATCTTAAATCTCATCTCGGAGTCACCTAGTGCAG,14800 fluorescence intensity (a.u.)
19,TTATCAATCAAGGATCAAGAACTTCTTCACAGCAATCTTGCGGAGTCACCTAGTGCAG,25100 fluorescence intensity (a.u.)
20,TTTCAATTGGTATCAATTCAAACCCACTCACTTAAAATGCCGGAGTCACCTAGTGCAG,6960 fluorescence intensity (a.u.)
21,TGGTTAATTACGTTCCGGTTCATGCTATTGAGGTCCGTTCCGGAGTCACCTAGTGCAG,26200 fluorescence intensity (a.u.)

row,Sequence,binding signal
1,TTGAAATTATTCTTGAATAATAATTTATTATGAGCTACTACGGAGTCACCTAGTGCAG,8230 fluorescence intensity (a.u.)
2,AAAGATGATTTTCATAGTATTGGTTATTCATAATCAATTGCGGAGTCACCTAGTGCAG,11800 fluorescence intensity (a.u.)
3,GTACCAATTACGCCAATGAAAGCTAGCAGAAATGGAGGAACGGAGTCACCTAGTGCAG,10300 fluorescence intensity (a.u.)
4,ATTCTATACTTGGCACAAATGCTCGTATTTAAGGTTATTTCGGAGTCACCTAGTGCAG,4430 fluorescence intensity (a.u.)
5,TATATATATATATATATATATATATATATATATATGAGAACGGAGTCACCTAGTGCAG,9830 fluorescence intensity (a.u.)
6,GTATTAACATATGATTAATTATTTAATTAAGTGTTAATTACGGAGTCACCTAGTGCAG,28200 fluorescence intensity (a.u.)
7,CGGTTGACAAGAATTATTGACTGCCGAACAGTGATGTACTCGGAGTCACCTAGTGCAG,24600 fluorescence intensity (a.u.)
8,AAAATTGATGTTCTCTTTGGTGCATTTCTTTCTTATTGTCCGGAGTCACCTAGTGCAG,26800 fluorescence intensity (a.u.)
9,TAAATTAACATAAATCGGCTTAGAGTTGATTCTTAGCATTCGGAGTCACCTAGTGCAG,16600 fluorescence intensity (a.u.)
10,ATTTCACTGCTATTAAGTTCAATCAACTAAGTTACTTTGACGGAGTCACCTAGTGCAG,7960 fluorescence intensity (a.u.)
11,GTTAGATCCAAGTTACACATTGATTGGGCTGCACAACACCCGGAGTCACCTAGTGCAG,8740 fluorescence intensity (a.u.)
12,TGATTCAAATGATTGAAGCTTTCCAAAACCTATGAAATTCCGGAGTCACCTAGTGCAG,17700 fluorescence intensity (a.u.)
13,ACATTGCTTAATTAAGTCTATGTTAAATGGTATTGGATCACGGAGTCACCTAGTGCAG,15800 fluorescence intensity (a.u.)
14,TACCTGATCAACTTTGACTAATTTTATCCATGTCATTCAGCGGAGTCACCTAGTGCAG,11500 fluorescence intensity (a.u.)
15,TACATGTTAACTTTACTGTGAATGAATAGCATTGAGCTTCCGGAGTCACCTAGTGCAG,3200 fluorescence intensity (a.u.)
16,TCATCTTAATGTAATTAATTGAGTCTAAATAAAGCTTCCACGGAGTCACCTAGTGCAG,16400 fluorescence intensity (a.u.)
17,AAAACTTGAAATTTATATATAAACTTTCATGTTGGGTAAGCGGAGTCACCTAGTGCAG,6360 fluorescence intensity (a.u.)
18,GTTGTGTTACATGATTGTCACTTTGGGCCATTAAACAACGCGGAGTCACCTAGTGCAG,5690 fluorescence intensity (a.u.)
19,AATAAATTACTAATAGTTTCGCACGCGCACTAAAGACATTCGGAGTCACCTAGTGCAG,19700 fluorescence intensity (a.u.)
20,ACTAACCAATCACAAGCTCTGCCCATTCACTTCCTCGCTTCGGAGTCACCTAGTGCAG,11200 fluorescence intensity (a.u.)
21,TTTTGTTTGATTTGGTTATTGGCGAATGGCGATGTTGAACCGGAGTCACCTAGTGCAG,6260 fluorescence intensity (a.u.)
